Assay results: PubChem BioAssay AID504332 (National Center for Advancing Translational Sciences (NCATS), 2011)
About 31,000 (8.9%) of roughly 350,000 compounds were called active. Inconclusive results, whose numbers are uncertain, are shown with a selection of clear calls. Calls come from the whole dose curve; as a rule, active = well fitted inhibition curve with a large enough effect; inconclusive = small, poorly fitted or top-dose-only effect; inactive = no such curve, though single readings can be large or run the other way. Potencies of inconclusive entries are doubtful fits and often do not repeat.
% is set by controls: 0 for no effect and ±100 for the full control effect; potency is the fitted concentration of half-maximal effect; tags give direction and shape of the fitted curve.
Note: nearly all actives have a fitted effect of over 75% in size.

What follows are compounds tested against Histone-lysine N-methyltransferase EHMT2 (Homo sapiens) (UniProt Q96KQ7) (assay: qHTS Assay for Inhibitors of Histone Lysine Methyltransferase G9a). Details: G9a H3K9 monomethylation, AlphaScreen, 2 h; activity, negative = inhibition: at 59 µM (top of the series) unless noted.
Chain of UniProt Q96KQ7 (Q96KQ7 whole entry, looked up): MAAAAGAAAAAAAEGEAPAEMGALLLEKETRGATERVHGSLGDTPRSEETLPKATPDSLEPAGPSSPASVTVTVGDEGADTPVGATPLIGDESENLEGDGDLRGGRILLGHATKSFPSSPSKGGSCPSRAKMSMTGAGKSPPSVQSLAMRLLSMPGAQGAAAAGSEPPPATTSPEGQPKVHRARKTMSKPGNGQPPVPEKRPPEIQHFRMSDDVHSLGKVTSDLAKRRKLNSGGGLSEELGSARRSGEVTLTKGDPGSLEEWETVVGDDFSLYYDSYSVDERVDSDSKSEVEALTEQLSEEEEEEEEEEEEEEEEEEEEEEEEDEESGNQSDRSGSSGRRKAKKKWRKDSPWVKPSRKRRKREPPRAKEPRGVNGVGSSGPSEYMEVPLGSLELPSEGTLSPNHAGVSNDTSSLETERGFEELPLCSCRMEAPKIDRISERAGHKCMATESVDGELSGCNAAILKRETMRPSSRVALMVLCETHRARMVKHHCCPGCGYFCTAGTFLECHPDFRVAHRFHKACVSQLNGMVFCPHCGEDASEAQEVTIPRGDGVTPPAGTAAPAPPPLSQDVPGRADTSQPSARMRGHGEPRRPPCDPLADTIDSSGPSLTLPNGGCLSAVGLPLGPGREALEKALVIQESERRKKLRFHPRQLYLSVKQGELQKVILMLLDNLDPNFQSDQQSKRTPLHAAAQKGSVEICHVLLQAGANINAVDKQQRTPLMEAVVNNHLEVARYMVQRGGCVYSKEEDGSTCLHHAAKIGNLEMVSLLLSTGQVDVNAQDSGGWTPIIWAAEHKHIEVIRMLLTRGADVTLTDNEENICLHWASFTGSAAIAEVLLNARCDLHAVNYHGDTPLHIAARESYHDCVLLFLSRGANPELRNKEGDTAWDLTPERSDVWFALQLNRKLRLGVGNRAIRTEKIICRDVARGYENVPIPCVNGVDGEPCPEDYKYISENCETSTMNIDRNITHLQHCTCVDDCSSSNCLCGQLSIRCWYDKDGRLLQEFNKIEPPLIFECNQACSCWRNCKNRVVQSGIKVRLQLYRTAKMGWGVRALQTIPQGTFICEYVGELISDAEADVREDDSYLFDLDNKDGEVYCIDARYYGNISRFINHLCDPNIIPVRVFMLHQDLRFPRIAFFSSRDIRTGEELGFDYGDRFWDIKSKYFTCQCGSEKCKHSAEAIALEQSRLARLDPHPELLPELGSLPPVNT
Outline: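 Using a bead-based AlphaScreen, monomethylated H3K9 product from 2 h room-temperature reactions (G9a 20 nM, peptide 500 nM, SAM 20 uM) was detected with 0.5 ug/mL rabbit anti-H3K9me1 antibody.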
In the case of `COc1ccc(OC)c(C(c2c(O)nc(SC)[nH]c2=O)c2c(O)nc(SC)[nH]c2=O)c1`, the Potency was active: 50.1 µM. With `CN1CCN(CCCNC(=O)Cn2c(-c3cccs3)cc3cc(Cl)ccc32)CC1` the Potency was inconclusive: 11.2 µM [inhibitor, partial curve, poor fit]. With `Cc1ccccc1Nc1cc2ccccc2c(=O)[nH]1` the Potency was inconclusive: 3.16 µM [inhibitor, partial curve, poor fit]. `CCn1c(SCC(=O)Nc2ccc(Br)cc2)nc2sc3c(c2c1=O)CCN(C)C3` was tested, and the Potency was inconclusive: 79.4 µM [inhibitor, single point]. For `COc1ccc(-c2[nH]c(-c3ccccc3)nc2SCC(=O)Nc2ccc3c(c2)OCCO3)cc1`, the Potency was inconclusive: 28.2 µM [inhibitor, partial curve, poor fit]. In the case of `COc1ccccc1/C=N/n1cnnc1`, the Potency was inconclusive: 0.251 µM [inhibitor, partial curve, poor fit]. `COc1cc2cc(C(c3nnnn3C(C)(C)C)N3CCc4ccccc4C3)c(=O)[nH]c2cc1OC` (stereo not given) was tested, and the activity, negative = inhibition was inconclusive: -90.7% [inhibitor]. With `COc1ccc(CCNC(=O)C(=O)NCc2ccccn2)cc1` the Potency was active: 50.1 µM. For `CCOc1cc(C2NC(=O)c3c(sc4c3CCN(C)C4)N2)ccc1OC(=O)c1ccccc1Cl` (stereo not given), the “activity, negative = inhibition” value was inactive: 3.58%. In the case of `Nc1ccc(C(=O)N2CCN(S(=O)(=O)c3ccc(Cl)s3)CC2)cc1[N+](=O)[O-]`, the Potency was inconclusive: 50.1 µM [inhibitor, partial curve]. In the case of `Cc1ccc(N(CC(=O)NC2CCCC2)C(=O)CNC(=O)c2cccs2)c(C)c1`, the Potency was inconclusive: 0.316 µM [inhibitor, partial curve, poor fit]. `CN(C)c1nc(NCc2ccccc2)nc(N/N=C/c2ccc(Br)cc2)n1` was tested, and the “activity, negative = inhibition” value was inactive: 2.01% [at 102 µM]. For `COc1ccc(C2C(C(=O)c3ccco3)=C(O)C(=O)N2CC2CCCO2)cc1OC` (stereo not given), the Potency was active: 50.1 µM. For `CCOC(=O)c1cc(-c2ccccc2)n(CC(=O)NC2CCC(C)CC2)c1C` (stereo not given), the “activity, negative = inhibition” value was inactive: 8.56%. With `O=C(NCCc1csc(-c2ccc(F)cc2)n1)c1cccs1` the “activity, negative = inhibition” value was inactive: 4.45%. `O=C(CCS(=O)(=O)c1cccc2nsnc12)NCc1ccccc1Cl` was tested, and the Potency was inconclusive: 28.2 µM [inhibitor, partial curve, poor fit]. `Cc1cc(C2=NNC(=NC3CC3)SC2)c(C)n1-c1c(C)n(C)n(-c2ccccc2)c1=O` was tested, and the Potency was inconclusive: 50.1 µM [inhibitor, partial curve, poor fit]. With `Nc1nc(Nc2cccc(F)c2)nc(N2CCOCC2)c1[N+](=O)[O-]` the Potency was inconclusive: 70.8 µM [inhibitor, partial curve]. For `Cc1ccc(S(=O)(=O)CCC(=O)Nc2ccc(Br)cc2C)cc1`, the Potency was inconclusive: 28.2 µM [inhibitor, partial curve, poor fit]. For `Cc1cccc(N2CCC(N=CN(C)C)=N2)c1`, the Potency was active: 3.98 µM. For `O=C(CSc1n[nH]c(=O)[nH]c1=O)c1cccc([N+](=O)[O-])c1`, the Potency was active: 31.6 µM. For `CCOC(=O)c1cnc2c(ccc3ccccc32)c1Nc1ccccc1OC`, the “activity, negative = inhibition” value was inactive: 0.233%. For `CC(=O)OC1c2ccccc2C(=O)N1Cc1ccccc1` (stereo not given), the “activity, negative = inhibition” value was inactive: 2.21% [at 102 µM]. `Cc1ccc(-c2nn(-c3ccc(F)cc3F)c3c2cnc2c(F)cccc23)cc1` was tested, and the “activity, negative = inhibition” value was inactive: 13.5%. In the case of `COC(=O)C1CCN(c2ccc([N+](=O)[O-])cc2[N+](=O)[O-])CC1`, the Potency was inconclusive: 56.2 µM [inhibitor, partial curve]. `CCN(CC)CCNC(=S)Nc1ccc2nc(N3CCCC3)cc(C)c2c1` was tested, and the Potency was active: 44.7 µM. With `Cc1ccccc1-n1c(C)cc(/C=C2\NC(=O)NC2=O)c1C` the Potency was inconclusive: 22.4 µM [inhibitor, single point]. `Cc1ccc2c(c1)c(=O)c(C(=O)c1ccc3c(c1)OCO3)cn2Cc1cccc(F)c1` was tested, and the “activity, negative = inhibition” value was inactive: -3.02%. For `COc1ccc(NC(=O)N(C2CCCCC2)C(C)c2ccco2)c(OC)c1` (stereo not given), the Potency was active: 44.7 µM. For `CCNc1nc(NCC)n2c(SCC(=O)Nc3ccc(F)cc3)nnc2n1`, the Potency was inconclusive: 89.1 µM [inhibitor, partial curve, poor fit]. In the case of `Cc1c(NC(=O)C(C)OC(=O)c2cc3c4ccccc4n(C)c3s2)c(=O)n(-c2ccccc2)n1C` (stereo not given), the Potency was inconclusive: 3.98 µM [inhibitor, partial curve, poor fit]. `COCc1cc(=O)n2[nH]c(-c3ccco3)cc2n1` was tested, and the Potency was inconclusive: 50.1 µM [inhibitor, partial curve]. `CSc1nsc(SC)c1C(=O)N1CCN(S(=O)(=O)c2ccc(C)cc2)C1C` (stereo not given) was tested, and the activity, negative = inhibition was inconclusive: -57.1% [inhibitor]. In the case of `COc1cccc(/C=C/C(=C2/C(=O)N(c3ccccc3)N=C2C)c2ccc(Br)cc2)c1OC`, the Potency was inconclusive: 3.16 µM [inhibitor, single point]. `COc1ccc(-c2nn(-c3ccccc3)cc2/C=C/C(=O)NCCCn2ccnc2)cc1OC` was tested, and the Potency was inconclusive: 44.7 µM [inhibitor, partial curve, poor fit]. For `COc1cc(/C=C2/SC(=S)N(Cc3ccccc3)C2=O)cc(OC)c1O`, the Potency was inconclusive: 6.31 µM [inhibitor, single point]. In the case of `Cc1ccc(NC(=O)COc2coc(CN3CCN(c4ccccc4)CC3)cc2=O)cc1`, the activity, negative = inhibition was inactive: 5.68% [at 0.501 µM]. With `Cc1nc2c(C(=O)O)cnn2c(C)c1Cc1ccccc1` the “activity, negative = inhibition” value was inactive: 0.51%. For `CC(=O)N1CCN(S(=O)(=O)c2cccc(C(=O)OCC(=O)NC(=O)c3cccn3C)c2)CC1`, the Potency was inconclusive: 1 µM [inhibitor, full curve]. With `Cc1cccn2c(=O)c(/C=C(\C#N)C(=O)NC3CCS(=O)(=O)C3)c(Oc3ccccc3Cl)nc12` (stereo not given) the Potency was inconclusive: 79.4 µM [inhibitor, single point]. With `COc1ccc(N2C(=O)CC(C#N)=C2N)cc1` the Potency was inconclusive: 44.7 µM [inhibitor, partial curve, poor fit]. In the case of `Cc1ccccc1-c1nc(CS(=O)(=O)CC(=O)NCc2ccc3c(c2)OCO3)c(C)o1`, the Potency was active: 50.1 µM. For `Cc1cc2cc3c(C)cc(=O)oc3c(C)c2o1`, the Potency was “inactive”. In the case of `Cc1c(C(=O)N(Cc2ccccc2)Cc2cccnc2)cnn1-c1ccc(F)cc1`, the Potency was inconclusive: 50.1 µM [inhibitor, partial curve, poor fit]. With `CCCOc1ccc(N2C(=O)CC(N3CCN(S(=O)(=O)c4ccccc4)CC3)C2=O)cc1` (stereo not given) the Potency was inconclusive: 79.4 µM [inhibitor, single point]. In the case of `O=C(COC(=O)CCCNC(=O)c1ccc(Cl)cc1)NCc1ccccc1Cl`, the Potency was inconclusive: 31.6 µM [inhibitor, partial curve, poor fit]. With `Cc1c(Cl)cccc1NC(=O)CNc1cccc(C(F)(F)F)c1` the Potency was active: 70.8 µM. For `Cc1cc(=O)[nH]c(N/N=C/c2c(C)nn(-c3ccc(F)cc3)c2Cl)n1`, the Potency was inconclusive: 11.2 µM [inhibitor, partial curve, poor fit]. `Cc1ccc(-c2csc(NC(=O)CN3CCOCC3)n2)cc1C` was tested, and the Potency was inconclusive: 6.31 µM [inhibitor, full curve]. In the case of `CCN1C(=O)/C(=C2\C=Cc3cc(C)ccc3N2CC)OC1=S`, the Potency was inconclusive: 35.5 µM [inhibitor, single point]. `CN(c1ccccc1)S(=O)(=O)c1ccc(C(=O)Nc2nnc(-c3ccco3)o2)cc1` was tested, and the Potency was inconclusive: 50.1 µM [inhibitor, partial curve, poor fit]. `O=C(Nc1nnc(C(F)(F)F)s1)c1cccnc1` was tested, and the Potency was inconclusive: 35.5 µM [inhibitor, single point]. For `COC(=O)C1=C(C(=O)OC)C2(OC1c1ccc(Br)cc1)C(=O)c1ccccc1C2=O` (stereo not given), the Potency was inconclusive: 22.4 µM [inhibitor, single point]. For `COc1cc(/C=N/NC(=O)c2cccc([N+](=O)[O-])c2)cc(OC)c1O`, the Potency was inconclusive: 39.8 µM [inhibitor, partial curve, poor fit]. In the case of `CN1C(C(=O)Nc2ccccn2)C(=O)c2sc(Cl)cc2S1(=O)=O` (stereo not given), the Potency was inconclusive: 15.8 µM [inhibitor, partial curve, poor fit]. For `CCOc1ccc(-n2c(N)c(-c3nc4ccccc4[nH]3)sc2=S)cc1`, the Potency was inconclusive: 39.8 µM [inhibitor, partial curve]. In the case of `Cc1ccc2oc(=O)c3cnn(CC(=O)NCCC(C)C)c3c2c1`, the Potency was inconclusive: 12.6 µM [inhibitor, partial curve, poor fit]. With `Cc1ccc(C(=O)CSc2nc3ccc(C(=O)NCCN4CCCCC4)cc3c(=O)[nH]2)cc1` the activity, negative = inhibition was inconclusive: -85.2% [inhibitor] [at 12.7 µM]. With `C[C@H]1C(c2ccccc2)=NN(c2ccccc2)[C@@H]1CO` the Potency was inconclusive: 63.1 µM [inhibitor, single point]. In the case of `Cc1cc(Br)c2nc3c(c(C(=O)O)c2c1)CCCCC3`, the Potency was inconclusive: 50.1 µM [inhibitor, partial curve, poor fit]. For `CCN(Cc1ccccc1)S(=O)(=O)c1ccc(C(=O)N(CCCN(C)C)c2nc3c(F)cccc3s2)cc1`, the Potency was inconclusive: 56.2 µM [inhibitor, single point]. In the case of `COc1cc(C(=O)Nc2cccnc2)cc(OC)c1OC`, the Potency was inconclusive: 25.1 µM [inhibitor, single point]. In the case of `NS(=O)(=O)c1ccc(CCNC(=O)CCC(=O)c2cccs2)cc1`, the Potency was inconclusive: 6.31 µM [inhibitor, single point]. For `CC1=C(C(N)=O)C(c2ccc(C)cc2)n2nc(SCc3ccccc3F)nc2N1` (stereo not given), the “activity, negative = inhibition” value was inactive: -11.4%. In the case of `Cc1ccc(N(C)S(=O)(=O)c2cccc(C(=O)NNC(=O)c3ccncc3)c2)cc1`, the “activity, negative = inhibition” value was inactive: 6.76%.
